According to patent publication US20210024610A1 (Hoffmann-La Roche, published 2021):

Columns and labels:
[1] = biological target: human 4-1BB expressed on cells (Jurkat-hu4-1BB-NFκB-luc2 reporter cells; human T cells in PBMC) (human, UniProt Q07011 24-255); experiment: cell-based or functional assay
[2] = biological target: T1, human Her2 expressed on the cell surface of tumor cells (SK-Br3, NCI-N87, KPL-4) (human, UniProt P04626); experiment: flow cytometry on SK-Br3 cells, PE anti-human IgG secondary
T1 construct: also called ErbB2

[3] = biological target: T1, human Her2 expressed on the cell …; experiment: flow cytometry on NCI-N87 cells, PE anti-human IgG secondary
[4] = biological target: T1, human Her2 expressed on the cell …; experiment: flow cytometry on KPL-4 cells, PE anti-human IgG secondary

UniProt Q07011, sequence (Q07011 24-255): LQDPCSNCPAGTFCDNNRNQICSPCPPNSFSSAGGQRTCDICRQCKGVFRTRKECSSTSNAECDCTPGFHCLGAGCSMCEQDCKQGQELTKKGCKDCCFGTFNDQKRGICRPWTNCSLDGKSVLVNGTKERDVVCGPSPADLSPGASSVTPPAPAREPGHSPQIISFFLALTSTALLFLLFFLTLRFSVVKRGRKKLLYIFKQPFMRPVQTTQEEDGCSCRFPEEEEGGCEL

- EC50 of NFκB-activation-induced Luciferase activity, Jurkat-hu4-1BB-NFκB-luc2 reporter cells, with NCI-N87 cells [1]: 0.05 nM
- EC50 of NFκB-activation-induced Luciferase activity, Jurkat-hu4-1BB-NFκB-luc2 reporter cells, with SK-Br3 cells [1]: 0.03 nM
- EC50 [2]: 7.3 nM
- EC50 [3]: 4.3 nM
- EC50 [4]: 0.35 nM
B1: Her2(aff-PER)-4-1BBL (monovalent Her2(aff-PER) split trimeric 4-1BB ligand Fc (kih) fusion antigen binding molecule containing CH1-CL crossover and charged … (Fc fusion)
heavy: EVQLVESGGGLVQPGGSLRLSCAASGFTFNDYTMDWVRQAPGKGLEWVADVNPNSGGSIVNRRFKGRFTLSVDRSKNTLYLQMNSLRAEDTAVYYCARNLGPFFYFDYWGQGTLVTVSSASTKGPSVFPLAPSSKSTSGGTAALGCLVKDYFPEPVTVSWNSGALTSGVHTFPAVLQSSGLYSLSSVVTVPSSSLGTQTYICNVNHKPSNTKVDKKVEPKSCDKTHTCPPCPAPEAAGGPSVFLFPPKPKDTLMISRTPEVTCVVVDVSHEDPEVKFNWYVDGVEVHNAKTKPREEQYNSTYRVVSVLTVLHQDWLNGKEYKCKVSNKALGAPIEKTISKAKGQPREPQVCTLPPSRDELTKNQVSLSCAVKGFYPSDIAVEWESNGQPENNYKTTPPVLDSDGSFFLVSKLTVDKSRWQQGNVFSCSVMHEALHNHYTQKSLSLSP
light: DIQMTQSPSSLSASVGDRVTITCKASQDVSTAVAWYQQKPGKAPKLLIYSASFRYTGVPSRFSGSRSGTDFTLTISSLQPEDFATYYCQQHYTTPPTFGQGTKVEIKRTVAAPSVFIFPPSDEQLKSGTASVVCLLNNFYPREAKVQWKVDNALQSGNSQESVTEQDSKDSTYSLSSTLTLSKADYEKHKVYACEVTHQGLSSPVTKSFNRGEC
chain 1: REGPELSPDDPAGLLDLRQGMFAQLVAQNVLLIDGPLSWYSDPGLAGVSLTGGLSYKEDTKELVVAKAGVYYVFFQLELRRVVAGEGSGSVSLALHLQPLRSAAGAAALALTVDLPPASSEARNSAFGFQGRLLHLSAGQRLGVHLHTEARARHAWQLTQGATVLGLFRVTPEIPAGLGGGGSGGGGSREGPELSPDDPAGLLDLRQGMFAQLVAQNVLLIDGPLSWYSDPGLAGVSLTGGLSYKEDTKELVVAKAGVYYVFFQLELRRVVAGEGSGSVSLALHLQPLRSAAGAAALALTVDLPPASSEARNSAFGFQGRLLHLSAGQRLGVHLHTEARARHAWQLTQGATVLGLFRVTPEIPAGLGGGGSGGGGSRTVAAPSVFIFPPSDRKLKSGTASVVCLLNNFYPREAKVQWKVDNALQSGNSQESVTEQDSKDSTYSLSSTLTLSKADYEKHKVYACEVTHQGLSSPVTKSFNRGE[here human IgG1 Fc with changes without letters]
chain 2: REGPELSPDDPAGLLDLRQGMFAQLVAQNVLLIDGPLSWYSDPGLAGVSLTGGLSYKEDTKELVVAKAGVYYVFFQLELRRVVAGEGSGSVSLALHLQPLRSAAGAAALALTVDLPPASSEARNSAFGFQGRLLHLSAGQRLGVHLHTEARARHAWQLTQGATVLGLFRVTPEIPAGLGGGGSGGGGSASTKGPSVFPLAPSSKSTSGGTAALGCLVEDYFPEPVTVSWNSGALTSGVHTFPAVLQSSGLYSLSSVVTVPSSSLGTQTYICNVNHKPSNTKVDEKVEPKSC
notes: Human IgG1 Fc knob-into-hole with P329G, L234A, L235A
